# In the supplement of paper PMC8728848:
# The other results are listed elsewhere or left out.
# B1: Neuropilin-1 (Homo sapiens), O14786 (protein)
# chain: FKCMEALGMESGEIHSDQITASSQYSTNWSAERSRLNYPENGWTPGEDSYREWIQVDLGLLRFVTAVGTQGAISKETKKKYYVKTYKIDVSSNGEDWITIKEGNKPVLFQGNTNPTDVVVAVFPKPLITRFVRIKPATWETGISMRFEVYGCKITDYPCSGMLGMVSGLISDSQITSSNQGDRNWMPENIRLVTSRSGWALPPAPHSYINEWLQIDLGEEKIVRGIIIQGGKHRENKVFMRKFKIGYSNNGSDWKMIMDDSKRKAKSFEGNNNYDTPELRTFPALSTRFIRIYPERATHGGLGLRMELLGCEVE
# How the values were obtained:
# Experiment in all cases: glycan array binding signal (z-score within array); higher = stronger binding
# Conditions in all cases: glycan notation: IUPAC condensed, linker removed
# [1] = target: Gal(b1-4)GlcNAc(b1-6)Gal(b1-4)GlcNAc
# How it was run: (§1)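 Arrays were curated from the Consortium for Functional Glycomics database, 3228 in total, and kept only where the protein sequence was available. Binding is expressed as a within-array Z-score. This score was averaged across arrays of the same protein sequence at different concentrations or buffers and across linkers, and negative values can be read as non-binding.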
# [2] = target: Gal(b1-4)GlcNAc(b1-6)Gal(b1-4)GlcNAc(b1-6)GalNAc
# How it was run: as §1
# [3] = target: Gal(b1-4)GlcNAc(b1-6)GalNAc
# How it was run: as §1
# [4] = target: Gal(b1-4)GlcNAc(b1-6)[Gal(b1-3)]GalNAc
# How it was run: as §1
# Gal3S(b1-3)GalNAc = target: Gal3S(b1-3)GalNAc
# How it was run: as §1
# Gal3S(b1-3)GlcNAc = target: Gal3S(b1-3)GlcNAc
# How it was run: as §1
# [5] = target: Gal3S(b1-3)[Fuc(a1-4)]GlcNAc
# How it was run: as §1
# Gal3S(b1-4)Glc = target: Gal3S(b1-4)Glc
# How it was run: as §1
# Gal3S(b1-4)Glc6S = target: Gal3S(b1-4)Glc6S
# How it was run: as §1
# Gal3S(b1-4)GlcNAc = target: Gal3S(b1-4)GlcNAc
# How it was run: as §1
# Gal3S(b1-4)GlcNAc6S = target: Gal3S(b1-4)GlcNAc6S
# How it was run: as §1
# [6] = target: Gal3S(b1-4)[Fuc(a1-3)]Glc
# How it was run: as §1
# Gal3S4S(b1-4)GlcNAc = target: Gal3S4S(b1-4)GlcNAc
# How it was run: as §1
# Gal3S6S(b1-4)GlcNAc = target: Gal3S6S(b1-4)GlcNAc
# How it was run: as §1
# Gal3S6S(b1-4)GlcNAc6S = target: Gal3S6S(b1-4)GlcNAc6S
# How it was run: as §1
# Gal4S(b1-4)GlcNAc = target: Gal4S(b1-4)GlcNAc
# How it was run: as §1
# Gal4S6S(b1-4)GlcNAc = target: Gal4S6S(b1-4)GlcNAc
# How it was run: as §1
# Gal6S(b1-4)Glc = target: Gal6S(b1-4)Glc
# How it was run: as §1
# Gal6S(b1-4)Glc6S = target: Gal6S(b1-4)Glc6S
# How it was run: as §1
# Gal6S(b1-4)GlcNAc = target: Gal6S(b1-4)GlcNAc
# How it was run: as §1
# Gal6S(b1-4)GlcNAc6S = target: Gal6S(b1-4)GlcNAc6S
# How it was run: as §1
# GalNAc(a1-3)Gal = target: GalNAc(a1-3)Gal
# How it was run: as §1
# GalNAc(a1-3)GalNAc = target: GalNAc(a1-3)GalNAc
# How it was run: as §1
# GalNAc(b1-3)Gal = target: GalNAc(b1-3)Gal
# How it was run: as §1
# [7] = target: GalNAc(b1-3)Gal(a1-4)Gal(b1-4)GlcNAc
# How it was run: as §1
# [8] = target: GalNAc(b1-3)Gal(a1-4)Gal(b1-4)GlcNAc(b1-3)Gal(b1-4)Glc
# How it was run: as §1
# GalNAc(b1-3)GalNAc = target: GalNAc(b1-3)GalNAc
# How it was run: as §1
# GalNAc(b1-4)GlcNAc = target: GalNAc(b1-4)GlcNAc
# How it was run: as §1
# [9] = target: GalNAc(b1-4)GlcNAc(b1-2)Man(a1-3)[GalNAc(b1-4)GlcNAc(b1-2)Man(a1-6)]Man(b1-4)GlcNAc(b1-4)GlcNAc
# How it was run: as §1
# Glc(a1-4)Glc = target: Glc(a1-4)Glc
# How it was run: as §1
# Glc(a1-6)Glc(a1-6)Glc = target: Glc(a1-6)Glc(a1-6)Glc
# How it was run: as §1
# Glc(b1-4)Glc = target: Glc(b1-4)Glc
# How it was run: as §1
# Glc(b1-6)Glc = target: Glc(b1-6)Glc
# How it was run: as §1
# GlcA(b1-3)Gal = target: GlcA(b1-3)Gal
# How it was run: as §1
# GlcA(b1-3)GlcNAc = target: GlcA(b1-3)GlcNAc
# How it was run: as §1
# GlcA(b1-6)Gal = target: GlcA(b1-6)Gal
# How it was run: as §1
# [10] = target: GlcNAc(a1-3)Gal(b1-4)GlcNAc
# How it was run: as §1
binder,measurement,setting,value
B1,glycan array binding signal (z-score),[1],-0.264
same,glycan array binding signal (z-score),[2],-0.09
same,glycan array binding signal (z-score),[3],-0.233
same,glycan array binding signal (z-score),[4],-0.272
same,glycan array binding signal (z-score),Gal3S(b1-3)GalNAc,-0.259
same,glycan array binding signal (z-score),Gal3S(b1-3)GlcNAc,-0.106
same,glycan array binding signal (z-score),[5],-0.223
same,glycan array binding signal (z-score),Gal3S(b1-4)Glc,-0.292
same,glycan array binding signal (z-score),Gal3S(b1-4)Glc6S,-0.16
same,glycan array binding signal (z-score),Gal3S(b1-4)GlcNAc,-0.294
same,glycan array binding signal (z-score),Gal3S(b1-4)GlcNAc6S,-0.154
same,glycan array binding signal (z-score),[6],0.036
same,glycan array binding signal (z-score),Gal3S4S(b1-4)GlcNAc,-0.199
same,glycan array binding signal (z-score),Gal3S6S(b1-4)GlcNAc,-0.196
same,glycan array binding signal (z-score),Gal3S6S(b1-4)GlcNAc6S,-0.15
same,glycan array binding signal (z-score),Gal4S(b1-4)GlcNAc,-0.235
same,glycan array binding signal (z-score),Gal4S6S(b1-4)GlcNAc,-0.012
same,glycan array binding signal (z-score),Gal6S(b1-4)Glc,-0.175
same,glycan array binding signal (z-score),Gal6S(b1-4)Glc6S,0.166
same,glycan array binding signal (z-score),Gal6S(b1-4)GlcNAc,-0.225
same,glycan array binding signal (z-score),Gal6S(b1-4)GlcNAc6S,0.147
same,glycan array binding signal (z-score),GalNAc(a1-3)Gal,-0.188
same,glycan array binding signal (z-score),GalNAc(a1-3)GalNAc,-0.255
same,glycan array binding signal (z-score),GalNAc(b1-3)Gal,-0.291
same,glycan array binding signal (z-score),[7],-0.216
same,glycan array binding signal (z-score),[8],-0.299
same,glycan array binding signal (z-score),GalNAc(b1-3)GalNAc,-0.225
same,glycan array binding signal (z-score),GalNAc(b1-4)GlcNAc,0.04
same,glycan array binding signal (z-score),[9],0.263
same,glycan array binding signal (z-score),Glc(a1-4)Glc,-0.252
same,glycan array binding signal (z-score),Glc(a1-6)Glc(a1-6)Glc,-0.316
same,glycan array binding signal (z-score),Glc(b1-4)Glc,-0.188
same,glycan array binding signal (z-score),Glc(b1-6)Glc,-0.271
same,glycan array binding signal (z-score),GlcA(b1-3)Gal,-0.271
same,glycan array binding signal (z-score),GlcA(b1-3)GlcNAc,-0.253
same,glycan array binding signal (z-score),GlcA(b1-6)Gal,-0.189
same,glycan array binding signal (z-score),[10],-0.186
